# The list shows a part of the results.
# B1: Fm1D (Escherichia coli) (protein)
# chain: FSCNVDGGSSIGAGTTSVYVNLDPVIQPGQNLVVDLSQHISCWNDYGGWYDTDHINLVQGSAFAGSLQSYKGSLYWNNVTYPFPLTTNTNVLDIGDKTPMPLPLKLYITPVGAAGGVVIKAGEVIARIHMYKIATLGSGNPRNFTWNIISNNSVVMPTHHHHHH
# Legend:
# Test in all cases: glycan array binding signal (z-score within array); higher = stronger binding
# Settings in all cases: glycan notation: IUPAC condensed, linker removed
# [1] = molecular target: Neu5Ac(a2-3)GalNAc(b1-4)GlcNAc
# Summary of the method: (§1)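 From the Consortium for Functional Glycomics database, 3228 arrays were curated, keeping only those whose protein sequence was available. Binding is given as a within-array Z-score averaged across arrays sharing a protein sequence and across linkers. Negative Z-scores can be read as non-binding.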
# [2] = molecular target: Neu5Ac(a2-3)[GalNAc(b1-4)]Gal(b1-4)Glc
# Summary of the method: as §1
# [3] = molecular target: Neu5Ac(a2-3)[GalNAc(b1-4)]Gal(b1-4)GlcNAc
# Summary of the method: as §1
# [4] = molecular target: Neu5Ac(a2-3)[GalNAc(b1-4)]Gal(b1-4)GlcNAc(b1-3)GalNAc
# Summary of the method: as §1
# [5] = molecular target: Neu5Ac(a2-3)[Neu5Ac(a2-6)]GalNAc
# Summary of the method: as §1
# Neu5Ac(a2-6)Gal = molecular target: Neu5Ac(a2-6)Gal
# Summary of the method: as §1
# [6] = molecular target: Neu5Ac(a2-6)Gal(b1-3)GlcNAc(b1-3)[Gal(b1-4)GlcNAc(b1-6)]Gal(b1-4)Glc
# Summary of the method: as §1
# Neu5Ac(a2-6)Gal(b1-4)Glc = molecular target: Neu5Ac(a2-6)Gal(b1-4)Glc
# Summary of the method: as §1
# [7] = molecular target: Neu5Ac(a2-6)Gal(b1-4)GlcNAc
# Summary of the method: as §1
# [8] = molecular target: Neu5Ac(a2-6)Gal(b1-4)GlcNAc(b1-2)Man
# Summary of the method: as §1
# [9] = molecular target: Neu5Ac(a2-6)Gal(b1-4)GlcNAc(b1-2)Man(a1-3)Man(b1-4)GlcNAc(b1-4)GlcNAc
# Summary of the method: as §1
# [10] = molecular target: Neu5Ac(a2-6)Gal(b1-4)GlcNAc(b1-2)Man(a1-3)[Gal(b1-4)GlcNAc(b1-2)Man(a1-6)]Man(b1-4)GlcNAc(b1-4)GlcNAc
# Summary of the method: as §1
# [11] = molecular target: Neu5Ac(a2-6)Gal(b1-4)GlcNAc(b1-2)Man(a1-3)[GlcNAc(b1-2)Man(a1-6)]Man(b1-4)GlcNAc(b1-4)GlcNAc
# Summary of the method: as §1
# [12] = molecular target: Neu5Ac(a2-6)Gal(b1-4)GlcNAc(b1-2)Man(a1-3)[GlcNAc(b1-4)][Neu5Ac(a2-6)Gal(b1-4)GlcNAc(b1-2)Man(a1-6)]Man(b1-4)GlcNAc(b1-4)GlcNAc
# Summary of the method: as §1
# [13] = molecular target: Neu5Ac(a2-6)Gal(b1-4)GlcNAc(b1-2)Man(a1-3)[Man(a1-6)]Man(b1-4)GlcNAc(b1-4)GlcNAc
# Summary of the method: as §1
# [14] = molecular target: Neu5Ac(a2-6)Gal(b1-4)GlcNAc(b1-2)Man(a1-3)[Neu5Ac(a2-3)Gal(b1-4)GlcNAc(b1-2)Man(a1-6)]Man(b1-4)GlcNAc(b1-4)GlcNAc
# Summary of the method: as §1
# [15] = molecular target: Neu5Ac(a2-6)Gal(b1-4)GlcNAc(b1-2)Man(a1-3)[Neu5Ac(a2-6)Gal(b1-4)GlcNAc(b1-2)Man(a1-6)]Man(b1-4)GlcNAc(b1-4)GlcNAc
# Summary of the method: as §1
# [16] = molecular target: Neu5Ac(a2-6)Gal(b1-4)GlcNAc(b1-2)Man(a1-3)[Neu5Ac(a2-6)Gal(b1-4)GlcNAc(b1-2)Man(a1-6)]Man(b1-4)GlcNAc(b1-4)[Fuc(a1-6)]GlcNAc
# Summary of the method: as §1
# [17] = molecular target: Neu5Ac(a2-6)Gal(b1-4)GlcNAc(b1-2)Man(a1-6)Man(b1-4)GlcNAc(b1-4)GlcNAc
# Summary of the method: as §1
# [18] = molecular target: Neu5Ac(a2-6)Gal(b1-4)GlcNAc(b1-2)Man(a1-6)[Gal(b1-4)GlcNAc(b1-2)Man(a1-3)]Man(b1-4)GlcNAc(b1-4)GlcNAc
# Summary of the method: as §1
# [19] = molecular target: Neu5Ac(a2-6)Gal(b1-4)GlcNAc(b1-2)Man(a1-6)[GlcNAc(b1-2)Man(a1-3)]Man(b1-4)GlcNAc(b1-4)GlcNAc
# Summary of the method: as §1
# [20] = molecular target: Neu5Ac(a2-6)Gal(b1-4)GlcNAc(b1-2)Man(a1-6)[Man(a1-3)]Man(b1-4)GlcNAc(b1-4)GlcNAc
# Summary of the method: as §1
# [21] = molecular target: Neu5Ac(a2-6)Gal(b1-4)GlcNAc(b1-2)[Neu5Ac(a2-6)Gal(b1-4)GlcNAc(b1-4)]Man(a1-3)[GlcNAc(b1-4)][Neu5Ac(a2-6)Gal(b1-4)GlcNAc(b1-2)[Neu5Ac(a2-6)Gal(b1-4)GlcNAc(b1-6)]Man(a1-6)]Man(b1-4)GlcNAc(b1-4)GlcNAc
# Summary of the method: as §1
# [22] = molecular target: Neu5Ac(a2-6)Gal(b1-4)GlcNAc(b1-2)[Neu5Ac(a2-6)Gal(b1-4)GlcNAc(b1-4)]Man(a1-3)[GlcNAc(b1-4)][Neu5Ac(a2-6)Gal(b1-4)GlcNAc(b1-4)Man(a1-6)]Man(b1-4)GlcNAc(b1-4)GlcNAc
# Summary of the method: as §1
# [23] = molecular target: Neu5Ac(a2-6)Gal(b1-4)GlcNAc(b1-2)[Neu5Ac(a2-6)Gal(b1-4)GlcNAc(b1-6)]Man(a1-6)[Neu5Ac(a2-6)Gal(b1-4)GlcNAc(b1-2)Man(a1-3)][GlcNAc(b1-4)]Man(b1-4)GlcNAc(b1-4)GlcNAc
# Summary of the method: as §1
# [24] = molecular target: Neu5Ac(a2-6)Gal(b1-4)GlcNAc(b1-3)Gal(b1-3)GlcNAc
# Summary of the method: as §1
# [25] = molecular target: Neu5Ac(a2-6)Gal(b1-4)GlcNAc(b1-3)Gal(b1-4)GlcNAc
# Summary of the method: as §1
# [26] = molecular target: Neu5Ac(a2-6)Gal(b1-4)GlcNAc(b1-3)Gal(b1-4)GlcNAc(b1-2)Man(a1-3)[Neu5Ac(a2-6)Gal(b1-4)GlcNAc(b1-3)Gal(b1-4)GlcNAc(b1-2)Man(a1-6)]GalNAc
# Summary of the method: as §1
# [27] = molecular target: Neu5Ac(a2-6)Gal(b1-4)GlcNAc(b1-3)Gal(b1-4)GlcNAc(b1-3)Gal(b1-4)GlcNAc
# Summary of the method: as §1
# [28] = molecular target: Neu5Ac(a2-6)Gal(b1-4)GlcNAc(b1-3)Gal(b1-4)GlcNAc(b1-3)Gal(b1-4)GlcNAc(b1-2)Man(a1-3)[Neu5Ac(a2-6)Gal(b1-4)GlcNAc(b1-3)Gal(b1-4)GlcNAc(b1-3)Gal(b1-4)GlcNAc(b1-2)Man(a1-6)]GalNAc
# Summary of the method: as §1
# [29] = molecular target: Neu5Ac(a2-6)Gal(b1-4)GlcNAc(b1-3)Gal(b1-4)GlcNAc(b1-3)GalNAc
# Summary of the method: as §1
# [30] = molecular target: Neu5Ac(a2-6)Gal(b1-4)GlcNAc(b1-3)Gal(b1-4)GlcNAc(b1-3)[Neu5Ac(a2-6)Gal(b1-4)GlcNAc(b1-3)Gal(b1-4)GlcNAc(b1-6)]GalNAc
# Summary of the method: as §1
# [31] = molecular target: Neu5Ac(a2-6)Gal(b1-4)GlcNAc(b1-3)Gal(b1-4)GlcNAc(b1-6)[Gal(b1-3)]GalNAc
# Summary of the method: as §1
# [32] = molecular target: Neu5Ac(a2-6)Gal(b1-4)GlcNAc(b1-3)Gal(b1-4)[Fuc(a1-3)]GlcNAc(b1-3)Gal(b1-4)[Fuc(a1-3)]GlcNAc
# Summary of the method: as §1
# [33] = molecular target: Neu5Ac(a2-6)Gal(b1-4)GlcNAc(b1-3)GalNAc
# Summary of the method: as §1
# [34] = molecular target: Neu5Ac(a2-6)Gal(b1-4)GlcNAc(b1-3)[Neu5Ac(a2-6)Gal(b1-4)GlcNAc(b1-6)]GalNAc
# Summary of the method: as §1
# [35] = molecular target: Neu5Ac(a2-6)Gal(b1-4)GlcNAc(b1-6)GalNAc
# Summary of the method: as §1
# [36] = molecular target: Neu5Ac(a2-6)Gal(b1-4)GlcNAc(b1-6)[Gal(b1-3)GlcNAc(b1-3)]Gal(b1-4)Glc
# Summary of the method: as §1
# [37] = molecular target: Neu5Ac(a2-6)Gal(b1-4)GlcNAc(b1-6)[Gal(b1-3)]GalNAc
# Summary of the method: as §1
# [38] = molecular target: Neu5Ac(a2-6)Gal(b1-4)GlcNAc6S
# Summary of the method: as §1
# Neu5Ac(a2-6)GalNAc = molecular target: Neu5Ac(a2-6)GalNAc
# Summary of the method: as §1
# [39] = molecular target: Neu5Ac(a2-6)GalNAc(b1-4)GlcNAc
# Summary of the method: as §1
# [40] = molecular target: Neu5Ac(a2-6)GalNAc(b1-4)GlcNAc6S
# Summary of the method: as §1
# [41] = molecular target: Neu5Ac(a2-6)GlcNAc(b1-4)GlcNAc
# Summary of the method: as §1
# [42] = molecular target: Neu5Ac(a2-6)GlcNAc(b1-4)GlcNAc(b1-4)GlcNAc
# Summary of the method: as §1
binder,measurement,setting,value
B1,glycan array binding signal (z-score),[1],-0.145
same,glycan array binding signal (z-score),[2],-0.146
same,glycan array binding signal (z-score),[3],-0.145
same,glycan array binding signal (z-score),[4],-0.141
same,glycan array binding signal (z-score),[5],-0.139
same,glycan array binding signal (z-score),Neu5Ac(a2-6)Gal,-0.143
same,glycan array binding signal (z-score),[6],-0.145
same,glycan array binding signal (z-score),Neu5Ac(a2-6)Gal(b1-4)Glc,-0.145
same,glycan array binding signal (z-score),[7],-0.144
same,glycan array binding signal (z-score),[8],-0.147
same,glycan array binding signal (z-score),[9],-0.144
same,glycan array binding signal (z-score),[10],-0.141
same,glycan array binding signal (z-score),[11],-0.145
same,glycan array binding signal (z-score),[12],-0.146
same,glycan array binding signal (z-score),[13],-0.145
same,glycan array binding signal (z-score),[14],-0.149
same,glycan array binding signal (z-score),[15],-0.144
same,glycan array binding signal (z-score),[16],-0.144
same,glycan array binding signal (z-score),[17],-0.147
same,glycan array binding signal (z-score),[18],-0.145
same,glycan array binding signal (z-score),[19],-0.136
same,glycan array binding signal (z-score),[20],-0.146
same,glycan array binding signal (z-score),[21],-0.142
same,glycan array binding signal (z-score),[22],-0.139
same,glycan array binding signal (z-score),[23],-0.149
same,glycan array binding signal (z-score),[24],-0.147
same,glycan array binding signal (z-score),[25],-0.147
same,glycan array binding signal (z-score),[26],-0.135
same,glycan array binding signal (z-score),[27],-0.146
same,glycan array binding signal (z-score),[28],-0.133
same,glycan array binding signal (z-score),[29],-0.147
same,glycan array binding signal (z-score),[30],-0.139
same,glycan array binding signal (z-score),[31],11.5
same,glycan array binding signal (z-score),[32],-0.141
same,glycan array binding signal (z-score),[33],-0.144
same,glycan array binding signal (z-score),[34],-0.146
same,glycan array binding signal (z-score),[35],-0.146
same,glycan array binding signal (z-score),[36],-0.146
same,glycan array binding signal (z-score),[37],3.09
same,glycan array binding signal (z-score),[38],-0.131
same,glycan array binding signal (z-score),Neu5Ac(a2-6)GalNAc,-0.148
same,glycan array binding signal (z-score),[39],-0.144
same,glycan array binding signal (z-score),[40],-0.148
same,glycan array binding signal (z-score),[41],-0.147
same,glycan array binding signal (z-score),[42],-0.147

# Source: the supplement of paper PMC8728848
